Laboratory results reported in PMC4336329 (PLoS ONE, 2015).
In all, about 310,000 compounds went through this assay and about 14,000 (4.5%) showed an effect of 50% or more. The effect is printed as a negative number. The list shows a part of the results.

Each compound was assayed against human ether-à-go-go-related gene (hERG) potassium channel (human, UniProt Q12809) (assay: primary screen, population patch clamp on CHO cells stably expressing hERG).
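Also: peak tail current of the secondary pulse compared with the same well before compound.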

human ether-à-go-go-related gene (hERG) potassium channel, sequence (Q12809 whole entry, looked up): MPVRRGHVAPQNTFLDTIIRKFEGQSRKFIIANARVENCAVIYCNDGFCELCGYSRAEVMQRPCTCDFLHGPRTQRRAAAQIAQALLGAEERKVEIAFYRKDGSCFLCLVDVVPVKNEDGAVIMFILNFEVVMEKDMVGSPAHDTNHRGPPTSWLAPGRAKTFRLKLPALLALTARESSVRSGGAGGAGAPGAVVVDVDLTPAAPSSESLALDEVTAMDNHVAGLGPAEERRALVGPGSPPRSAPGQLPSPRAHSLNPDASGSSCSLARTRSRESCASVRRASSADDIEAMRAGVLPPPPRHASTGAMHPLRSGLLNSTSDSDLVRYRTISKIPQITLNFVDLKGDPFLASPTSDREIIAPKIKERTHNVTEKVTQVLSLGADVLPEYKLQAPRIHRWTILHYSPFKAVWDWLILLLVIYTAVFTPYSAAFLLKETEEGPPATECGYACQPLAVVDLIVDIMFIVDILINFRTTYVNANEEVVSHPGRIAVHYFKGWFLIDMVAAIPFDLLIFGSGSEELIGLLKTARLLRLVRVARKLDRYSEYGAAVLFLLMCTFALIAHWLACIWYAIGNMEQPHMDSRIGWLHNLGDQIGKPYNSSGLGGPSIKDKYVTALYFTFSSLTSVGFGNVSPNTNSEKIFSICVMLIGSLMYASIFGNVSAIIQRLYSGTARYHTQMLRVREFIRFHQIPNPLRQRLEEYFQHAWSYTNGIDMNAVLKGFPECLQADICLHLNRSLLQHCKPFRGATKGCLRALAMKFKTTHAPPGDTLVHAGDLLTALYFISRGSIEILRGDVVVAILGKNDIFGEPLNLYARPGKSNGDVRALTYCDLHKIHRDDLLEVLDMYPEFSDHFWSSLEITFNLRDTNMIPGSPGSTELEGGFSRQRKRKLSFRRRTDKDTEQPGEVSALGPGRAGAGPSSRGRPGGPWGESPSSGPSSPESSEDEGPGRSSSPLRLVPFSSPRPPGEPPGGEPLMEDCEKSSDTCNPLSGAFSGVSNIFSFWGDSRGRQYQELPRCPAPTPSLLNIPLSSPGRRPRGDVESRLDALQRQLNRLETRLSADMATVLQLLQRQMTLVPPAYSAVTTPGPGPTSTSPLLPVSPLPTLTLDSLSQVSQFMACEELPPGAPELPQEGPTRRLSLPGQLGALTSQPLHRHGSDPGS

Compound | hERG current change (%, negative = inhibition) at 10uM [%]
N#CCC(=O)Nc1sc2c(c1C(N)=O)CCCC2 | -9.21
Cc1cc(N2C(=O)CC(N3CCC(n4c(=O)[nH]c5ccccc54)CC3)C2=O)no1 (stereo not drawn) | 2.34
Cc1cc(C)cc(NC(=O)CN2CCN(c3ncccn3)CC2)c1 | -12.1
O=C(NCc1ccccc1Cl)c1ccc(S(=O)(=O)N2CCCC2)cc1 | -6.88
COc1ccc(C(=O)Nc2sc3c(c2C(=O)NCc2ccco2)CCCC3)cc1OC | -20.1
CN(C)S(=O)(=O)c1cccc(NC(=O)COC(=O)c2ccc3c(c2)OCO3)c1 | -19.4
COc1ccc(/C=C/C(=O)Nc2ccccc2C(F)(F)F)cc1OC | -4.62
O=c1c(C(c2ccc(Br)cc2)c2c(O)nc3n(c2=O)CCCS3)c(O)nc2n1CCCS2 | 6.44
CNS(=O)(=O)c1cc(NC(=O)CCNC(=O)c2ccco2)ccc1C | 11.3
O=C(N/N=C/C=C/c1ccco1)C(O)c1ccccc1 (stereo not drawn) | 12.4
CCOc1cc(/C=C\[N+](=O)[O-])ccc1OCC(=O)Nc1ccccc1C | -2.89
Nn1c(C2CCC2)nc2cc(Cl)ccc2c1=O | -0.707
O=C(Nc1cccc2cccnc12)c1cccnc1 | -8.96
Cc1nc2cc3sc(C)nc3cc2s1 | 30.3
CC/C=C/C(=O)N1CC2(CC(c3cccc(NC(=O)CC)c3)=NO2)C[C@H]1C(N)=O (stereo partly drawn) | 13.6
Cc1cc([N+](=O)[O-])nn1CC(=O)NCCc1c[nH]c2ccccc12 | 17.9
NNC(=S)NC1CCS(=O)(=O)C1 (stereo not drawn) | 22.1
Cc1cc(C)cc(-c2nnc(SCC(=O)NC3CC3)o2)c1 | -1.77
CC(Sc1ncccn1)C(=O)NC1(C#N)CCCCC1 (stereo not drawn) | 1.49
COc1ccc(CNC(=O)C2CCCN(c3nccc(C)n3)C2)cc1 (stereo not drawn) | -0.849
CCOC(=O)NNC(=O)C12CC3CC(CC(C3)C1)C2 | 3.96
O=C(CCCNC(=O)c1ccc(Cl)cc1)NCc1ccccc1Cl | 6.27
Cc1nc(-c2ccccc2)nc(-c2ccccc2)n1 | -11.6

Compound | hERG current change (%, negative = inhibition) at 10uM [%]
Cc1ccc(C)c(-n2nnnc2SCC(=O)c2c(N)n(C)c(=O)n(C)c2=O)c1 | 10.7
CC(C)c1ccc(NC2CCCN(C(=O)CC3CCCC3)C2)cc1 (stereo not drawn) | -28
Cc1ccc(CNC(=O)c2cc(Cl)cc(Cl)c2)n1C | -8.85
COc1ccc(Cl)cc1NC(=O)C[n+]1ccccc1.[Cl-] | 15.2
COc1cccc(NC(=O)Cn2c(=O)n(CC3CCCO3)c(=O)c3ccccc32)c1 (stereo not drawn) | 2.78
Cc1ccc(C)c(S(=O)(=O)N2CCCOC2CNC(=O)C(=O)NCc2ccccc2)c1 (stereo not drawn) | -21.3
CC(C)Oc1ccc(C(=O)NCCCNC(=O)c2ccccn2)cc1 | -0.573
Cc1cc(C)n(C(C)CNS(=O)(=O)c2ccc(C)c(C)c2)n1 (stereo not drawn) | 24.4
COc1cccc(CNC(=O)CSc2ccc(-c3ccccn3)nn2)c1 | 0.00278
COc1cc(C=O)ccc1OCc1cccc(Br)c1 | -1.11
CC(C)(C)c1cc(CCC(=O)NNC(=S)NC(=O)c2ccccc2)cc(C(C)(C)C)c1O | 2.36
O=C1N2CCSC2=NC1(Nc1ccccn1)C(F)(F)F (stereo not drawn) | 19.3
O=CNC(n1cnc2c(N3CCOCC3)ncnc21)C(Cl)(Cl)Cl (stereo not drawn) | 8.34
Cc1ccc(NS(=O)(=O)c2ccc(C)c(C(=O)NCC(c3ccccc3)N(C)C)c2)cc1 (stereo not drawn) | -15.6
Cc1ccc(Nc2cc(C)c3ccc(O)cc3n2)cc1C.Cl | -58.5
Cc1cccc(N(C)S(=O)(=O)c2ccc(-c3cc(C)no3)s2)c1 | 6.83
Cc1ccc(N/C(N)=N/c2nc(CSc3ccccn3)cc(=O)[nH]2)c(C)c1 | -3.78
COc1ccc(CCNC(=O)CCNC(=O)c2ccco2)cc1OC | 20.2
O=C(C1CCC(=O)N(C2CC2)C1)N1CCN(c2cccc(Cl)c2)CC1 (stereo not drawn) | 3.1
CCCc1nc2nc(C)c(NS(=O)(=O)c3ccc(C4CCCCC4)cc3)c(=O)n2[nH]1 | 10.3
COc1cccc(NC(=O)NCCC2=CCCCC2)c1 | -13.1
CCCCNC(=O)CNC(=O)c1nn(-c2ccc(OC)cc2)c(=O)c2ccccc12 | -1.58
